The values that follow come from the supplement of paper PMC10126150.

Values marked as one replicate rest on one cluster of the flow cell; about a third of the high ones do not repeat.

In this data set the test system is ATP. Nature of the data set: switch fluorescence ratio, 500 uM ATP over buffer (Cy3 cluster intensity, sum of 5 cycles each) (fold (ratio)); higher = stronger signal-on switching upon ATP binding; sequences stand for … in TCGTCGGCAGCGTCAGATGTGTATAAGAGACAGTTTTTTTTTTTTTTTTTTTTTTTTT…TC. To be noted: aptamer strand: ATP DNA aptamer (quencher-CACCTGGGGGAGTATTGCGGAGGAAGG + anchor), 100 nM annealed; ATP concentration: 500 uM; one replicate. The essentials: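 Clusters with intensities outside 100-1000 RFU were excluded. The remaining Cy3-labelled switching-strand clusters on a modified Illumina MiSeq flow-cell had been annealed to 100 nM quencher-labelled ATP aptamer and imaged in selection buffer, then after 15 min with 500 uM ATP at 22 °C, for five cycles separated by NaOH stripping and re-annealing. The fluorescence ratio, averaged per switch-domain sequence, is each cluster's summed target-cycle Cy3 intensity over its summed buffer-cycle Cy3 intensity.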
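Further: ATP exposure 15 min at 22 °C before imaging.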

As to GAGATAAAG, the switch fluorescence ratio was determined as 1.02.
For the sequence CTCCCACCCC, the switch fluorescence ratio came out at 1.83.
For TGTAAGATTT, the switch fluorescence ratio is 0.986.
As for TACGTTAGCA, the figure is 1.06; as for GATTATAAGC, 0.989; as for GCGGCCTGCG, 0.963.
Turning to CGTAGGTCGA, the switch fluorescence ratio came out at 1.03.
Turning to GTATTAGTCT, the switch fluorescence ratio was 1.07.
The same measure for TCCGGGGAGG: 1.02; for GGGTGGTCCT: 0.966; for CGAGAGCAGG: 1.06.
GTGTGTAGGT: the switch fluorescence ratio was 0.907.
Turning to GAGTCTACTT, the switch fluorescence ratio was determined as 1.02.
The same measure for AAGCGTGGTA: 0.999; for GGTATCTGAC: 1.08.
In the case of CGTAGGGATA, the switch fluorescence ratio was found to be 1.06.
The same measure for CCTTTGGTAG: 0.968.
The same measure for AGTATTCTGA: 0.997.
As for ATTTACGCGC, the figure is 1.01; as for CCGCCTCCTT, 3.08; as for AATACAAGT, 1.
In the case of CCTGTCTTTG, the switch fluorescence ratio stood at 1.04.
As for GGGCGGCATG, the figure is 1.01; as for CGCGTCGACC, 1.21; as for CCTAACCCTT, 0.974.
The same measure for CCCCGTTCGA: 1.56; for CCCTATTAGG: 1.04.
The same measure for TTGTCGTCCT: 1.02; for CACCATCGAA: 1.01; for CCGGAGAAAA: 1.1.
For GTGATAAAAG, the switch fluorescence ratio turned out to be 1.09.
As for GTTATGTGGG, the figure is 0.956; as for GGTGCTCTAC, 1.05.
As for TGCATGAGCA, the figure is 1.07; as for CTGATGTCAT, 1.03.
Turning to TGTCGGTTAG, the switch fluorescence ratio was 0.963.
As to GGGGTGCCCT, the switch fluorescence ratio came to 0.978.
Turning to CAAAGTGAGG, the switch fluorescence ratio worked out at 1.
Consider TGGATTTGAG, for which the switch fluorescence ratio was determined as 0.956.
As for CGAGTATAAG, the figure is 0.977.
As to CTGTATATTA, the switch fluorescence ratio stood at 1.04.
With ACAAGCTGAA, the switch fluorescence ratio stood at 1.03.
In the case of GGTGCGACGT, the switch fluorescence ratio was 1.03.
Regarding GGGTTGTGCG, the switch fluorescence ratio worked out at 1.06.
As for AGCCACCTCG, the switch fluorescence ratio turned out to be 1.02.
As for AAGAATGGGA, the figure is 1.01; as for GTGCCTGCAG, 1.04.
The same measure for ACTCTTTCGC: 1.05.
As for AGATTATAGT, the switch fluorescence ratio was determined as 0.986.
The same measure for AATTCAGAAC: 0.963.
As for ACTTAGCAGT, the switch fluorescence ratio is 1.28.
The same measure for GGTCCAGTTG: 1.04; for CCTTCAGGCG: 1.51.
The same measure for AGAGACGTTT: 0.968.
Regarding ATAGAAATGT, the switch fluorescence ratio came to 1.05.
On to TTGAGAACGC, for which the switch fluorescence ratio was 1.05.
Take TGATGTGTGG: the switch fluorescence ratio was determined as 0.951.
For GGGAGAGAAG, the switch fluorescence ratio was found to be 0.964.
In the case of CGCACGATGT, the switch fluorescence ratio is 1.06.
For the sequence GTTAACGTCG, the switch fluorescence ratio is 0.959.
As for ATGCAGGCCA, the figure is 1.16.
As for AGCGGCAAAA, the figure is 0.999.
The same measure for GATTTGGTAC: 1.04.
For CTAACCCATG, the switch fluorescence ratio is 1.12.
As to TGTTATCTTT, the switch fluorescence ratio is 0.981.
As for TATTCTAGGC, the figure is 1.04; as for AACGCGCCGA, 1.09.
For CGTAGCGTAA, the switch fluorescence ratio turned out to be 2.46.
Consider TTTACAAGAT, for which the switch fluorescence ratio amounted to 1.
The same measure for GTGTTATGCT: 0.976; for GGTAACGATC: 0.997.
CTCATTAAGA: the switch fluorescence ratio came out at 0.954.
As to GAAGCCTCCT, the switch fluorescence ratio was 1.02.
Take GCTTCAGTAC: the switch fluorescence ratio worked out at 1.17.
As to TGAAGAGCAT, the switch fluorescence ratio is 1.04.
The same measure for AGCCTGACTA: 1.07; for CGGTTGCTGT: 0.992.
The same measure for GTTTTAGGTC: 0.956; for CCTTCCCCAT: 2.65.
